Data: the supplement of paper PMC12217912
The other results are listed elsewhere or left out. The full chains were built here from the parent and the listed change. Values near 0.05 are background.

B1: TEV protease; numbered along this chain (parent)
chain: MGESLFKGPRDYNPISSSICHLTNESDGHTTSLYGIGFGPFIITNKHLFRRNNGTLVVQSLHGVFKVKDTTTLQQHLVDGRDMIIIRMPKDFPPFPQKLKFREPQREERICLVTTNFQTKSMSSMVSDTSCTFPSGDGIFWKHWIQTKDGQCGSPLVSTRDGFIVGIHSASNFTNTNNYFTSVPKNFMELLTNQEAQQWVSGWRLNADSVLWGGHKVFMVKPEEPFQPVKEATQL

Variants of: B1
Assay: raw area under fraction-flipped curve 0-4 h after induction (AUC4h, not background-subtracted), DNA-recorder readout of cleavage of the substrate (dimensionless); higher = more cleavage of the substrate by the protease variant
Conditions: temperature: 34 °C; time window: 0-4 h after rhamnose induction
Protocol: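 In vivo DNA recorder in E. coli TOP10(DE3) ΔrhaA at 34 °C. Each TEVp single-site mutant (parent TEVp 0) is paired with a single-site variant of the 7-mer TEVs (canonical ENLYFQ|S). The substrate sits between flexible linkers in a Bxb1-sfGFP-TEVs-SsrA fusion, so cleavage stabilises Bxb1 and speeds flipping of a recombination array, read by NGS. The value is the raw area under the fraction-flipped curve over 0-4 h after rhamnose induction (AUC4h), with ≥20 reads per time point. It is not background-subtracted; inactive controls average about 0.047.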
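Further: Bxb1 expression induced with 0.2% (w/v) L-rhamnose at OD600 near 0.5, cultures sampled hourly, flipped fraction per protease–substrate barcode pair counted by paired-end Illumina sequencing.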

| Variant | area with substrate ENLYAQS | area with substrate ENLYDQS | area with substrate ENLYEQS | area with substrate ENLYGQS | area with substrate ENLYHQS | area with substrate ENLYIQS | area with substrate ENLYKQS | area with substrate ENLYMQS | area with substrate ENLYNQS | area with substrate ENLYPQS | area with substrate ENLYQQS | area with substrate ENLYRQS | area with substrate ENLYSQS | area with substrate ENLYTQS | area with substrate ENLYVQS | area with substrate ENLYWQS | area with substrate ENLYYQS | area with substrate ENLYLQS | area with substrate ENLYCQS |
| --- | --- | --- | --- | --- | --- | --- | --- | --- | --- | --- | --- | --- | --- | --- | --- | --- | --- | --- | --- |
| T23S | 0.076 | 0.064 | 0.0749 | 0.061 | 0.0684 | 0.102 | 0.0536 | 0.0754 | 0.0606 | 0.0695 | 0.0524 | 0.0488 | 0.0787 | 0.0735 | 0.096 | 0.0803 | 0.0842 | – | – |
| D27A | 0.0692 | 0.0584 | 0.0653 | 0.0592 | 0.0592 | 0.106 | 0.0395 | 0.0836 | 0.0747 | 0.0735 | 0.0522 | 0.0539 | 0.0695 | 0.0819 | – | 0.0749 | 0.0597 | 0.0781 | – |
| S32H | 0.076 | 0.0729 | 0.0715 | 0.0559 | 0.0614 | 0.106 | 0.0444 | 0.0846 | 0.0635 | 0.075 | 0.0502 | 0.0512 | 0.0615 | – | 0.117 | 0.0736 | 0.0727 | 0.0811 | – |
| P14W | 0.079 | 0.0594 | 0.0653 | 0.0767 | 0.0596 | 0.155 | 0.0644 | 0.0827 | 0.0704 | 0.0722 | 0.06 | 0.0614 | 0.0691 | – | 0.157 | 0.0815 | 0.0661 | – | – |
| P14C | 0.0974 | 0.0614 | 0.0802 | 0.0789 | 0.0713 | 0.102 | 0.0561 | 0.0653 | 0.0612 | 0.075 | 0.0569 | 0.07 | – | 0.0756 | 0.11 | 0.0832 | 0.0617 | 0.0853 | 0.071 |
| I36D | 0.04 | 0.0272 | 0.0463 | 0.0463 | 0.0419 | 0.0376 | 0.0475 | 0.0734 | 0.0454 | 0.0354 | 0.0506 | 0.0472 | 0.0336 | – | 0.043 | 0.0488 | 0.0471 | 0.0355 | – |
| I36A | 0.0581 | 0.0507 | 0.0596 | 0.0731 | 0.0633 | 0.0907 | 0.0536 | 0.0655 | 0.0577 | 0.0814 | 0.0544 | 0.0813 | 0.0553 | 0.0676 | 0.101 | 0.0584 | – | – | – |
| E25P | 0.0558 | 0.0633 | 0.0569 | 0.0366 | 0.06 | 0.067 | 0.0614 | 0.0596 | 0.0581 | 0.062 | 0.0564 | 0.0586 | 0.0601 | – | 0.0654 | 0.0512 | 0.0571 | 0.0625 | 0.0577 |
| I15C | 0.0648 | 0.0602 | 0.0612 | 0.0724 | 0.061 | 0.118 | – | 0.0788 | 0.0636 | 0.0833 | 0.0532 | 0.0562 | 0.0663 | – | – | 0.0807 | 0.068 | – | – |
| I15S | 0.116 | 0.0543 | 0.0652 | 0.058 | 0.051 | 0.102 | 0.0611 | 0.057 | 0.0419 | 0.0698 | 0.0572 | 0.0537 | 0.0639 | 0.0921 | 0.104 | 0.0923 | 0.0599 | 0.0681 | – |
| L33P | 0.043 | – | 0.0649 | 0.0467 | 0.041 | 0.0504 | 0.0501 | 0.0499 | 0.0405 | 0.0548 | 0.045 | 0.0505 | 0.0445 | 0.0417 | 0.0443 | 0.0516 | 0.0515 | – | 0.0467 |
| S18R | 0.0824 | 0.0482 | 0.0608 | – | 0.0588 | 0.123 | 0.0593 | 0.0869 | 0.0543 | 0.0627 | 0.0541 | 0.0723 | 0.0451 | 0.0785 | 0.0972 | 0.064 | 0.0536 | 0.157 | 0.0538 |
| S18K | 0.0644 | 0.0613 | 0.065 | – | 0.03 | 0.108 | 0.0435 | 0.0933 | 0.0568 | 0.0554 | 0.0574 | – | 0.0638 | – | 0.0938 | 0.077 | – | 0.0682 | – |
| S26K | 0.058 | 0.0515 | 0.0676 | 0.0662 | 0.057 | – | 0.0278 | 0.054 | 0.0544 | 0.0563 | 0.0595 | 0.0575 | 0.0578 | 0.0643 | 0.0763 | 0.06 | 0.0539 | – | 0.0944 |
| S26C | 0.0649 | 0.0963 | 0.0739 | 0.0749 | 0.0534 | 0.106 | 0.0389 | 0.0748 | 0.0699 | – | 0.0468 | 0.0596 | 0.0757 | – | 0.0993 | 0.0555 | – | 0.0729 | 0.0767 |
| S26F | 0.0625 | 0.0695 | 0.0573 | 0.0763 | – | 0.0866 | 0.0529 | 0.0838 | 0.0637 | 0.0637 | 0.0766 | – | 0.0625 | – | 0.0805 | – | 0.0633 | 0.0745 | 0.0583 |
| C20M | 0.0715 | 0.0611 | 0.0634 | 0.0699 | 0.072 | 0.118 | 0.0654 | 0.0409 | – | 0.0649 | 0.062 | 0.0446 | 0.0842 | – | – | – | 0.0467 | 0.0769 | 0.096 |
| C20R | 0.0431 | – | 0.0396 | 0.04 | 0.0488 | 0.0515 | 0.0383 | 0.0417 | 0.0489 | 0.0456 | – | – | 0.0485 | 0.043 | 0.0492 | 0.0371 | 0.0393 | 0.0349 | 0.0413 |
| G28C | 0.0567 | 0.069 | 0.0594 | 0.0984 | 0.057 | – | 0.0553 | 0.0799 | 0.0593 | 0.0658 | 0.064 | 0.058 | 0.063 | – | 0.109 | 0.0741 | 0.0828 | 0.0682 | – |
| T30F | 0.0755 | 0.0579 | 0.0709 | 0.0557 | 0.0669 | 0.106 | 0.0795 | 0.0838 | 0.0726 | 0.0669 | 0.0542 | 0.0416 | – | 0.0951 | 0.102 | 0.0725 | 0.0498 | 0.0904 | – |
| N13R | 0.0946 | 0.0624 | 0.0681 | 0.0927 | 0.0675 | – | 0.0646 | 0.0859 | 0.0644 | 0.0725 | 0.0575 | 0.0562 | 0.0925 | 0.0709 | 0.0907 | 0.0767 | 0.0617 | 0.0886 | – |
| Y12S | 0.0748 | 0.057 | 0.0902 | – | 0.0616 | 0.102 | 0.0548 | 0.0922 | 0.0742 | 0.0732 | 0.0274 | 0.0646 | 0.0704 | 0.0723 | 0.113 | 0.0651 | 0.092 | 0.0841 | – |
